# Results: PMC12136788
# This is one part of the list.
# T1: UNK ZnF1-3 (human, UniProt Q9C0B0 31-174)
# T1 sequence: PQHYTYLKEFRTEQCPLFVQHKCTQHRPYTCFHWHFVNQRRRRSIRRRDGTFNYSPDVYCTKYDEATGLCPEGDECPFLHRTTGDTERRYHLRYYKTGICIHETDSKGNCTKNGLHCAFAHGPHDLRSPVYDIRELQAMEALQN
# B1: chr3:98531265:98531266:-_ENSG00000057019_ENST00000326840|hu_hu|FALSE|FALSE (ssRNA)
# RNA: GGGAGUUCUACAGUCCGACGAUCUCCGAGCAGCUCCAUUUUCAUGGCAAUUUUCUGCUGCCAUUGGGUAGGAUUCACUCUAAUAAAACGUGCAAUAAUUGGUGGCAAAAAGUUAUUACGCACAUCCUGGUGAUAAUCUUUGUUCAACAGAGGAUUGAGCAUCA
# B2: chr18:52893488:52893489:-_ENSG00000196628_ENST00000354452|hu_hu|hu_hu_hu_mus_True|38_98 (ssRNA)
# RNA: GGGAGUUCUACAGUCCGACGAUCUAUUUAGACCAUUUCAAUGGAUUUAUGGCAUUUACUCAGUGCUGAUAGGUGGAAAAACUACUUCAACAGGGAUUUUUUUUUUUCUUAAUACAUGCCAAGAUUGUGUGGCUGUCAAAACAGCAACAGAGGAUUGAGCAUCA
# B3: chr8:24301720:24301721:-_ENSMUSG00000031545_ENSMUST00000167004|mus_mus|FALSE|FALSE (ssRNA)
# RNA: GGGAGUUCUACAGUCCGACGAUCUGCUUCCAAGGUUUUACUUUCCUCCUGCCCCAAAGCAUUCAGCGGGUAAAUUUGUCCUAAAGAUCUGUAUUGUCAGAAGUACCAAGAAGAGUUCGCCUUGGUGCCAGAAGAAUCCUGAAACAACAGAGGAUUGAGCAUCA
# B4: chr12:39763582:39763583:-_ENSG00000139116_ENST00000544797|hu_mus|hu_hu_hu_mus_False|18_68 (ssRNA)
# RNA: GGGAGUUCUACAGUCCGACGAUCCUCUAGGAACUGGGCAUUCACUUUGAAUUCAGGAGGGGGCAGCCCAUUUUUAAUCGCUGAGGUCUUUUUCUCAUCAAUACUCUUGAACAGGUGUUUAACAGCUCGAGAGAUGAUGCCCUGCAACAGAGGAUUGAGCAUCA
# B5: 33135152_33138273_1075_CDS_ENSG00000162521_ENST00000458695|human|control|control (ssRNA)
# RNA: GGGAGUUCUACAGUCCGACGAUCAUCUUCUGGGGAUUGUUCCUCUCCAAUUUUACUUAAAUCCCAGACAUUCAGUCUGCGAUCAGUACCACUGGAAGCUAAAAUAGUCUCAUUGUGAGGUGACCACUGAACCUGGAAUAUUUCCAACAGAGGAUUGAGCAUCA
# B6: chr3:58389949:58389950:+_ENSMUSG00000075700_ENSMUST00000107924|mus_mus|motif|central (ssRNA)
# RNA: GGGAGUUCUACAGUCCGACGAUCCAGGAAGAAAACCAUCAUACAUGCAUAAACCUUAUUUUCUUGGCCCCACUGCCAGAUGCGGGGAGCUUGCAUGCCGAAAAAAGCAAAAGGAUCUUUGCCAACAAUUAUUAAGCCUAUUAACAACAGAGGAUUGAGCAUCA
# B7: chr2:26350769:26350770:+_ENSG00000084733_ENST00000264710|hu_hu|motif|central (ssRNA)
# RNA: GGGAGUUCUACAGUCCGACGAUCGAUAUCUUCAGCUAACGUGAGGAACGCCUUUUCGAUGUUUAUAUUUGCUUUUGCACGGGUCUCAAAAAACCUAAUACCAUGCUCCCUUGCAAUCUGUUCUCCUUUUCCUUUAGGUACAACCAACAGAGGAUUGAGCAUCA
# B8: chr15:96521860:96521861:-_ENSMUSG00000022462_ENSMUST00000023099|mus_mus|motif|central (ssRNA)
# RNA: GGGAGUUCUACAGUCCGACGAUCGAACUCUUUUGUGGGACACAGUAAGUGAGUGACGGAACUCCGGAUAGGGAAAAUAACGGCUGGGACCGUGAGGGUGACAGCCACCAGCACAGCCAAUCGGACAACAAGGAGAAGAAUGUCCAACAGAGGAUUGAGCAUCA
# B9: chr1:133183185:133183186:-_ENSMUSG00000026425_ENSMUST00000097588|mus_hu|FALSE|FALSE (ssRNA)
# RNA: GGGAGUUCUACAGUCCGACGAUCUGAGUGACAGUCUUAGGUUCACACAAAGCAUCUCCAAGCAUACAUACAAUAUUCCAGUUAUCAACACUAUUUUAAAGAAUAUACCAUUUUACACAAAUGUGACAUACAAGUCAGACGCCACAACAGAGGAUUGAGCAUCA
# B10: chr15:75756842:75756843:-_ENSMUSG00000022570_ENSMUST00000023231|mus_mus|FALSE|FALSE (ssRNA)
# RNA: GGGAGUUCUACAGUCCGACGAUCUAGCACGUGGCCAUCUUCGAUGUUGAAGUUGUCAUAAGGCCCAAAGACAUUGGUAGGGAUGACGGCGGUGAAGGUACAGCCGUGCUGCUGGAAGUAGGCUCUGUUCUGCACGUCAAUCAUCAACAGAGGAUUGAGCAUCA
# B11: chr19:54062153:54062154:+_ENSMUSG00000024976_ENSMUST00000025932|mus_mus|FALSE|FALSE (ssRNA)
# RNA: GGGAGUUCUACAGUCCGACGAUCUUGGCAGACGGUACUUUGGGGUCUUUCUCUUUAGAGUCUUUUUCUUUUCCUAAACUACUACUCAUGGUGACUCAAGCUUCACUCAAACACUACAUGAACUCCUCCUCCUCGCCAGCAAUCCAACAGAGGAUUGAGCAUCA
# B12: 88005186_88005763_3840_CDS_ENSMUSG00000038368_ENSMUST00000097992|mouse|control|control (ssRNA)
# RNA: GGGAGUUCUACAGUCCGACGAUCAAGGGCAGCCAGACAGAGCAUGGUGGGGGCACCCUCUGUCAGGACAACUUUAAUCCAGCUGGGGCGAAGUCUGUUGCCCAAGUCUUCAGCUUUUCCAUGUCCACACACAGACAAACCAUACAACAGAGGAUUGAGCAUCA
# B13: chr10:33214929:33214930:-_ENSG00000150093_ENST00000302278|hu_hu|hu_hu_hu_mus_True|28_78 (ssRNA)
# RNA: GGGAGUUCUACAGUCCGACGAUCAACAAGUUCAUUGAAAAACUCUCCUCUGUCAGUAAGACUGAGCACAUUUUUGUAGCUAAAUGGGCUGGUGCAGUUUUGUUCACUUGUGCAAGGAUUUCUUAGCUUUGCUGGGGUUGUGCUCAACAGAGGAUUGAGCAUCA
# B14: chr19:41288841:41288842:-_ENSMUSG00000025016_ENSMUST00000025989|mus_hu|motif|central (ssRNA)
# RNA: GGGAGUUCUACAGUCCGACGAUCUAAAUCUCAAAAUGUUUAAUAAAAACAAGUAUCUUCUCCAUUUAACACUUUGCUUUCGGACUGUACAGUAAAUUGCAUUGUAGAGAGUACACUUCUGUCUUCAAACUGUAUCUUCUUUGGCAACAGAGGAUUGAGCAUCA
# Molecular target: T1, UNK ZnF1-3
# Assay: nsRBNS (natural sequence RNA bind-n-seq); RBNS binding buffer (assumed for nsRBNS): 25 mM Tris pH 7.5, 150 mM KCl, 3 mM MgCl2, 0.01% Triton X-100, 500 ug/ml BSA, 20 U/ml SUPERase-In, 4 C; UNK is unkempt and MSI1 is Musashi-1; names of the RNAs are library labels; protein concentration not given here; high values mean tight binding
row,Binder,binding signal [enrichment R]
1,B1,0.747
2,B2,1.15
3,B3,0.723
4,B4,1.49
5,B5,0.641
6,B6,1.67
7,B7,0.86
8,B8,1.15
9,B9,1.38
10,B10,0.81
11,B11,0.758
12,B12,0.994
13,B13,1.1
14,B14,0.577
